Assay results taken from PubChem BioAssay AID485344 (National Center for Advancing Translational Sciences (NCATS), 2010).
Out of some 340,000 compounds screened, about 6,900 (2%) were called active. Cut-off read from the data, not from the text of the source: active = inhibition above about 30%; inactive = below that, where a call was filed. This is a selection; strong and weak results do not stand in their true shares. The source gives no active or inactive call for entries shown without one.

molecular target: D(2) dopamine receptor (Homo sapiens) (UniProt P14416); assay: HTS Assay for Allosteric Antagonists of the Human D2 Dopamine Receptor: Primary Screen for Antagonists; details: HEK293 TREx D2 cells, calcium flux, dopamine EC80; at 10 µM; stronger effect = higher value; note: 0% is about no effect
UniProt P14416, sequence (P14416 whole entry, looked up): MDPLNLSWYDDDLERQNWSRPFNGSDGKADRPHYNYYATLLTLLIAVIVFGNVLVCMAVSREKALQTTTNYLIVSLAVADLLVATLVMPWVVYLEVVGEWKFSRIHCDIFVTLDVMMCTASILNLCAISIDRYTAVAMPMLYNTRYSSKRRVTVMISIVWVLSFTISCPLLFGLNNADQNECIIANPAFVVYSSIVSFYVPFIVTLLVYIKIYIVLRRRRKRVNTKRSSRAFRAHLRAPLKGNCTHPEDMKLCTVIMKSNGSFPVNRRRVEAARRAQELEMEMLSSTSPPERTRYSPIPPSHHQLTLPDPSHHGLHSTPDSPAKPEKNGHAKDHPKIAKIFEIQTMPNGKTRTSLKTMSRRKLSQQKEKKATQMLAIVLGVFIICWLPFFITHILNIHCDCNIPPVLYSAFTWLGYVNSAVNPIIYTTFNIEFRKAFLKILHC
How it was run: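 Measurement of antagonist activity uses fluorescent calcium dye in inducible HEK293 T-REx D2 cells: 10 s baseline, compound addition with 180 s read, EC80 dopamine addition with a further 180 s read.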

| Compound | inhibition |
| --- | --- |
| Cc1cccc(NC(=O)CSc2ncc(-c3ccccc3)[nH]2)c1C | -14.8% |
| Cc1cccc(Nc2nc(N)nc(N)c2S(=O)(=O)c2ccccc2)c1 | -2.27% |
| O=C(c1ccccc1F)N1c2ncnn2C2(CCCCC2)[C@@H]2CCCC[C@@H]21 | 9.32% |
| Cc1cccc(Cn2c(=O)n(Cc3ccccc3)c(=O)c3c2c2cc(C)ccc2n3C)c1 | 19.2% |
| CC(=O)c1ccc(NS(=O)(=O)c2c(C)nc3scc(C)n3c2=O)cc1 | -5.97% |
| CCOC(=O)c1sc2ccccc2c1S(=O)(=O)Nc1ccc(C(C)=O)cc1 | 5.65% |
| CCn1cc(C(=O)NCCc2ccc(OC)c(OC)c2)c(=O)c2cc(S(=O)(=O)N3CCCCCC3)ccc21 | -5.37% |
| CSc1ncc(C(=O)Nc2ccc(C)c(Cl)c2)c(-c2ccccc2)n1 | 10.5% |
| CCc1ccc(N(CC)C(=O)Cn2nc(Cc3cccnc3)c3ccccc3c2=O)cc1 | -1.31% |
| CCOC(=O)c1cc(C)n(CC2CCC(C(=O)Nc3ccccc3OC)CC2)c1C (configuration not stated) | -0.535% |
| COc1ccccc1NC(=O)c1oc2ccccc2c1NC(=O)COc1cccc(C)c1 | 5.57% |
| COc1ccc(Cl)cc1NC(=O)N(C)CCc1c(C)nn(C)c1C | 13.1% |
| Cc1ccc2oc(-c3ccc(C)c(NC(=O)C(C)(C)Oc4ccc(Cl)cc4)c3)nc2c1 | 7.56% |
| O=C1N(Cc2ccccc2Cl)c2ccccc2C1(O)c1c[nH]c2ccccc12 (configuration not stated) | -2.45% |
| CC1=C(C(=O)OCC2CCCCC2)C(c2ccc(Cl)cc2)CC(=O)N1 (configuration not stated) | -13.3% |
| Cc1nonc1OCCN1CCN(c2ccccc2[N+](=O)[O-])CC1 | active: 53.4% |
| Cc1ccc(CN(Cc2ccco2)C(=O)c2oc3cc(Br)ccc3c2C)cc1 | 16.4% |
| Clc1ccccc1-c1nnc(COc2ccccc2)o1 | 1.79% |
| Cc1nc2nc(NC(=O)c3ccc(C(C)(C)C)cc3)[nH]n2c(=O)c1Cc1ccccc1 | 22.2% |
| CCOC(=O)c1ccc(NC(=O)CSc2nc3cc4ccccc4cc3[nH]2)cc1 | 0.967% |
| COc1ccc(CNC(=O)Cn2ccc3cc(S(=O)(=O)N4CCCCC4)ccc32)cc1OC | -15.1% |

| Compound | inhibition |
| --- | --- |
| Cc1ccc(-n2c(=O)c3c4c(sc3n(Cc3cc(=O)n5ccccc5n3)c2=O)CCC4)cc1C | 5.17% |
| Cn1c(=O)c2c(nc(-n3ccnc3)n2Cc2ccc([N+](=O)[O-])cc2)n(C)c1=O | active: 30.6% |
| COc1ccc(OC)c(NC(=O)CN2C(=O)CC(C)Sc3ccccc32)c1 (configuration not stated) | -2.07% |
| CCOc1ccc(NC(=O)CSc2oc(-c3ccc(F)cc3)nc2S(=O)(=O)c2ccc(C)cc2)cc1 | -6.62% |
| O=C(CCOc1ccccc1)N(Cc1cccnc1)c1nc2ccc(Cl)cc2s1 | 22% |
| CCC(C(=O)Nc1cccc(-c2nc3cccnc3s2)c1C)c1ccccc1 (configuration not stated) | 11.5% |
| COc1ccc(-n2cc(C(=O)NCCc3cc(OC)ccc3OC)c3ccccc3c2=O)cc1 | -11.1% |
| CC(C)CC(=O)Nc1nnc(S(=O)(=O)N(C)Cc2ccc(Cl)cc2)s1 | 2.29% |
| CC1=C(C(=O)Nc2ccc(C)cc2C)C(c2cccs2)n2nc(SCc3cccc(C)c3)nc2N1 (configuration not stated) | 4.42% |
| CNC(=O)CSc1cn(CC(=O)N2CCCCCC2)c2ccccc12 | 24.4% |
| OCC1CCCCN1CC(O)COC(c1ccc(F)cc1)c1ccc(F)cc1 (configuration not stated) | active: 30.6% |
| COc1cccc(CNC(=O)Cn2nc(-c3ccc(Cl)cc3)ccc2=O)c1 | 3.75% |
| Cc1cccc2c1N(Cc1ccccc1OCCC(C)C)C(=O)C2=O | 15.5% |
| CC(=O)c1ccc(NC(=O)c2cc(C)nc3c2c(C)nn3-c2ccc(C)cc2)cc1 | -5.79% |
| COc1ccc(-n2c(=O)c3c(c4cc(OC)ccc4n3C)n(Cc3cccc(C)c3)c2=O)cc1 | -11.5% |
| CC(=O)c1ccc(N2CCN(c3ncnc4c3c(-c3ccccc3)cn4-c3ccc(Cl)cc3)CC2)cc1 | -3.79% |
| CC(C)NS(=O)(=O)c1ccc(OCC(=O)N2CCc3ccccc3C2)cc1 | active: 30.4% |
| C(=N\Nc1nc2ccccc2s1)/c1cccs1 | active: 37.5% |
| CCCCSc1nnc2n(-c3ccc(OC)cc3)c(=O)c3c4c(sc3n12)COC(C(C)C)C4 (configuration not stated) | -26% |
| CC1(C(=O)NCc2ccc(F)cc2)Oc2ccccc2NC1=O (configuration not stated) | active: 75.8% |
| CCOC(=O)c1cc(S(=O)(=O)Nc2cc(F)ccc2C)[nH]n1 | -13.4% |

| Compound | inhibition |
| --- | --- |
| CCOC(=O)N1CCc2c(sc3c2C(=O)NC(c2cc(OC)c(OC)c(OC)c2)N3)C1 (configuration not stated) | 19.4% |
| COc1ccccc1NC(=O)c1c(NCc2ccc(C)o2)sc2c1CCCCC2 | 14% |
| COc1ccc(-c2cc(C(F)(F)F)n3nc(-c4ccccc4)cc3n2)cc1OC | -7.15% |
| CCc1ccc(NC(=O)Cn2c(=O)n(CCC(C)C)c(=O)c3cccnc32)cc1 | -1.27% |
| CC(=O)Nc1nonc1-c1nnc(SCc2ccccc2F)n1C | 6.6% |
| CCc1ccccc1NS(=O)(=O)c1ccc2c(c1)CC(=O)N2 | -8.29% |
| Cc1ccc(NC(=O)C2CCCN(C(=O)c3cnn(-c4ccc(F)cc4)c3-n3cccc3)C2)c(Cl)c1 (configuration not stated) | 7.97% |
| O=C(CSc1ccc(-c2cccs2)nn1)Nc1ccccc1C(F)(F)F | -2.06% |
| COc1ccc(-n2c(-c3ccco3)nc3c(cnn3-c3ccc(Cl)cc3)c2=O)cc1 | 2.25% |
| O=C(NCCc1ccccc1Cl)C1CCN(c2nc3ccccc3nc2C(F)(F)F)CC1 | 0.154% |
| CCOc1ccc(/C=C/c2nc(C#N)c(NCc3ccccc3)o2)cc1 | -1.56% |
| O=C(CCC1N=C2c3ccccc3N=C(SCc3ccc(F)cc3)N2C1=O)NCCc1ccccc1 (configuration not stated) | 6.77% |
| COc1ccc(Cl)cc1NC(=O)C(C)Sc1nc2c(c(=O)[nH]1)CCCC2 (configuration not stated) | 2.25% |
| CCOc1ccccc1CNC(=O)c1ccc2c(c1)N(Cc1ccc(C)cc1)CCS2 | 14.4% |
| CN(C)S(=O)(=O)c1cc(NC(=O)CN2CCN(c3ccccc3)CC2)ccc1Cl | active: 63.9% |
| CC(=O)c1cccc(NC(=O)CSc2nc(=O)n(Cc3ccco3)c3c2CCC3)c1 | -16.8% |
| Cc1oc(-c2cccc(Cl)c2)nc1CS(=O)(=O)CC(=O)NC(C)CCc1ccccc1 (configuration not stated) | -3.66% |
| O=C(CN1C(=O)CSc2ccc(S(=O)(=O)N3CCOCC3)cc21)NCCCN1CCc2ccccc2C1 | active: 47.1% |
| CCCCN(CC)C(=O)c1nn(C)c2c1CSc1ccccc1-2 | 15% |
| Cc1cc(C)cc(NC(=O)CSc2nc(=O)n(CCN3CCOCC3)c3c2CCC3)c1 | 0.443% |
